Experimental data reported in publication PMC4336329 (PLoS ONE, 2015).
The campaign covered roughly 310,000 compounds. About 14,000 (4.5%) showed an effect of 50% or more. Effects have a minus sign here. Some of the results follow. Where a SMILES comes first, the peptide text is derived from it. The star is where a group is joined. Cbz = O=C(OCc1ccccc1)*

target: human ether-à-go-go-related gene (hERG) potassium channel (human, UniProt Q12809); assay: primary screen, population patch clamp on CHO cells stably expressing hERG
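Also: peak tail current of the secondary pulse compared with the same well before compound.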

Chain of human ether-à-go-go-related gene (hERG) potassium channel (Q12809 whole entry, looked up): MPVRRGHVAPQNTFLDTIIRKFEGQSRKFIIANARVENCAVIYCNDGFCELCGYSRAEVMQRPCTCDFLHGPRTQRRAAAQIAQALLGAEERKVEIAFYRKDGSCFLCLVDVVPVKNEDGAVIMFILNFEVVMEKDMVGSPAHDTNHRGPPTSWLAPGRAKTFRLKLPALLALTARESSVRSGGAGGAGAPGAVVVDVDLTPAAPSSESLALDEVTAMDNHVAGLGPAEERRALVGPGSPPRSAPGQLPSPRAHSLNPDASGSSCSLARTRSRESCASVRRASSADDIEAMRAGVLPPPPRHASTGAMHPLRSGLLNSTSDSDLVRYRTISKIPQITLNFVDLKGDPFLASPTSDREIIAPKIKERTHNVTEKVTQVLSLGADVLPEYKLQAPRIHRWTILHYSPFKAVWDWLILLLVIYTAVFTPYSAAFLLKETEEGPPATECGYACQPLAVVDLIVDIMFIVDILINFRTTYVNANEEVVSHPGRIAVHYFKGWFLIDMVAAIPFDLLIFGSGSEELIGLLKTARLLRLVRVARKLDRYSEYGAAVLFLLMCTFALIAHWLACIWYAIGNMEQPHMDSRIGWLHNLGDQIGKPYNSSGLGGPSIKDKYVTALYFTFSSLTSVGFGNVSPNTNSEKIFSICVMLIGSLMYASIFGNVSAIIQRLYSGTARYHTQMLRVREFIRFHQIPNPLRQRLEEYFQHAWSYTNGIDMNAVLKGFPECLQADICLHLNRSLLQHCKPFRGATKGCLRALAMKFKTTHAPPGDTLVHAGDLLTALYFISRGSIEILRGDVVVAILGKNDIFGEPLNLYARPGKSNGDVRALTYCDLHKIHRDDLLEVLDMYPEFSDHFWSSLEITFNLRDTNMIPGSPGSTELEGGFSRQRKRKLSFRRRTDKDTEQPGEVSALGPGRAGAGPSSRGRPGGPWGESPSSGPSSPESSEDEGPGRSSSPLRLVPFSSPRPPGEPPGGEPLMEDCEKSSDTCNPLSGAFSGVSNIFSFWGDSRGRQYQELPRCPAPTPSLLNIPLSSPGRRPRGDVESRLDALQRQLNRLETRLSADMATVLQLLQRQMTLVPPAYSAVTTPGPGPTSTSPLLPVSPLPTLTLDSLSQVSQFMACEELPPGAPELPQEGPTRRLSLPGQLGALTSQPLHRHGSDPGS

Structure (SMILES) | hERG current change (%, negative = inhibition) at 10uM [%]
Cc1cc(C)c(S(=O)(=O)c2c(C)cccc2C)c(Cl)n1 | 0.573
Cc1ccccc1OCC(=O)NC(=S)Nc1ccc(Br)c(C)n1 | 18
CCN(CC)C(=O)C12CC3CC(CC(Br)(C3)C1)C2 | 7.03
COc1cc(-c2nnc(COC(=O)CSCC(=O)Nc3cc(C)on3)o2)cc(OC)c1OC | 1.78
CN(C)C(=O)c1ccc(NC(=O)CSc2nnc(-c3cccs3)n2N)cc1 | -2.53
CCOc1ccccc1C(=O)Nc1cccc2cccnc12 | 10.6
CCC1S/C(=N/N=C/c2ccco2)N(Cc2ccccc2C)C1=O (stereo not shown) | 0.654
COc1cccc2c1Oc1ncccc1N(C(=O)CCC(=O)NCc1ccc(C)cc1)C2 | -34.4
COc1ccc(-n2c3c(cc(C(=O)N4CCN(CCO)CC4)c2=O)C(=O)CC(C)(C)C3)cc1 | -3.89
CSc1ccccc1NC(=O)c1ccc(N2CC3CC(C2)c2cccc(=O)n2C3)c(NC(=O)c2cccnc2)c1 (stereo not shown) | -30.6
CC(C)(/C=N/NC(=O)CSCc1ccc(Cl)cc1)CCC#N | -15.5
O=C(CN(CCO)c1ccccc1)Nc1cccc(S(=O)(=O)N2CCCC2)c1 | 6.01
O=C(O)/C=C/c1ccccc1[N+](=O)[O-] | 9.87
COc1ccccc1OC(C)C(=O)O (stereo not shown) | 3.54
FC(F)(F)c1cccc(Cc2noc(CN3CCC(c4ccncc4)CC3)n2)c1 | -66.2
CC(C)=CCN1CCN(Cc2ccc3nsnc3c2)CC1CCO (stereo not shown) | -19.4
COC(=O)c1cc(Br)c(=O)n(-c2nccs2)c1 | -5.98
Cc1ccc(-c2nc3ncccc3o2)cc1NC(=O)c1ccc([N+](=O)[O-])o1 | -35.5
O=C(CSc1nnc2ncccn12)Nc1cccc2ccccc12 | 5.09
COC(=O)c1cc(-c2cccs2)[nH]n1 | 17
CCOc1cc(S(=O)(=O)NC2CC(C)(C)NC(C)(C)C2)ccc1F | -9.91
O=C(Nc1cc(C(F)(F)F)ccc1-n1cncn1)c1ccc(Cl)cc1 | -3.01

Structure (SMILES) | hERG current change (%, negative = inhibition) at 10uM [%]
CCOc1ccc(/C=C/C(=O)Oc2ccccc2)cc1 | 23.1
Cc1ccc(N(CCCCN2C(=O)c3ccccc3C2=O)C(=O)c2cccc([N+](=O)[O-])c2)cc1 | -59.5
COc1ccc(C(NC(=O)c2ccc(-c3ccccc3)cc2)c2ccccc2)cc1 (stereo not shown) | 7.97
COc1cc(NC(=O)CC(C)S(=O)(=O)c2ccc3c(c2)NC(=O)CO3)cc(OC)c1OC (stereo not shown) | 7.63
CCNS(=O)(=O)c1ccc(CCC(=O)NCc2cccnc2)cc1 | 16.8
CC(C)(C)C(=O)N1CCN(c2ccc(NC(=O)c3ccc([N+](=O)[O-])o3)cc2)CC1 | 10.2
CC(CNC(=O)c1ccco1)NC(=O)c1ccco1 (stereo not shown) | 14.6
CC(NC(=O)c1ccc(NC(=O)CC2SC(N3CCCC3)=NC2=O)cc1)c1ccccc1 (stereo not shown) | 12.6
CCOC(=O)c1c(C)sc2c1N(C(=O)CCl)c1cc(Cl)ccc1S2 | -3.3
Cc1nn2c(N3CCN(C4CCCC4)CC3)cc(C(C)(C)C)nc2c1-c1ccccc1 | -3.53
CC1CCCC(C)N1C(=O)COC(=O)CCC1CCCC1 (stereo not shown) | 5.68
N=C1C(=O)OCC1c1ccccc1NC(=O)c1ccc(F)cc1 (stereo not shown) | -1.16
O=C1C(=O)N(CC2COc3ccccc3O2)c2ccccc21 (stereo not shown) | 15.8
CC(C)CN(C(=O)COC(=O)c1ccccc1NCc1ccco1)c1c(N)n(Cc2ccccc2)c(=O)[nH]c1=O | -14
COCC(C)n1c(C)cc(C(=O)CN2C(=O)NC(Cc3c[nH]c4ccccc34)C2=O)c1C (stereo not shown) | 6.69
O=C(NCCc1cnc[nH]1)c1ccc(-c2ccccc2)cc1 | -13
COc1ccccc1NC(=O)CSc1nnc(-c2ccco2)o1 | -0.698
COc1ccccc1N1CCN(S(=O)(=O)c2ccccc2)CC1 | -10.1
CCSc1nnc(-c2ccccc2N)c(=O)[nH]1 | 17.2
COc1ccc(NC(=S)N2CCN(C(=O)c3ccccc3)CC2)cc1 | -11.6
Cc1cccc(OCC(=O)Nc2ccccc2N2CCCCC2)c1 | 2.17
CC1(C)CC(=O)C(C(=O)CCCCC(=O)C2C(=O)CC(C)(C)CC2=O)C(=O)C1 | -0.168

Structure (SMILES) | hERG current change (%, negative = inhibition) at 10uM [%]
CCc1ccccc1NC(=O)CCC(=O)OCC(=O)c1ccc(-c2ccccc2)cc1 | 0.642
Cc1ccc(Cl)cc1NC(=O)C1CC(=O)Nc2ncnn21 (stereo not shown) | 12.9
COc1ccc(C(C)=O)cc1COC(=O)CNC(=O)c1ccccc1F | -2.02
COc1ccc(N2CCN(C(=O)CNC(=O)Cn3cnc4sc(C)c(C)c4c3=O)CC2)cc1 | -3.61
CCN=C(NCC)SC1CC(=O)N(c2cccc(OC)c2)C1=O (stereo not shown) | 8.29
Cc1cccc(-n2nc3c(c2NC(=O)C(C)C)CSC3)c1 | -32.5
COc1ccc(CNC(=O)C2(CC3CC(c4ccccc4)=NO3)CCN(C(=O)CCCCCBr)CC2)cc1 (stereo not shown) | -76.9
C=CCN(CC=C)C(=S)NC(=O)c1ccc(-c2ccccc2)cc1 | 6.2
CCC(C)C(NC(=O)C(C)NC(=O)CNC(=O)CNC(=O)OCc1ccccc1)C(=O)OC (stereo not shown) (Cbz-GGAI-OMe; configuration not given here) | 16.9
Cc1ccc(NC(=O)CCNS(=O)(=O)c2ccc(Br)cc2)cc1S(=O)(=O)N1CCOCC1 | -19.4
O=C(COC(=O)CN1C(=O)c2cccc([N+](=O)[O-])c2C1=O)NC1CCS(=O)(=O)C1 (stereo not shown) | -2.61
CCN(CC)C(=O)c1ccc(CS(=O)(=O)c2ccc(Br)cc2)cc1 | -4.39
CN(C)CCN(Cc1cc2cc3c(cc2[nH]c1=O)OCO3)C(=S)NCC1CCCO1 (stereo not shown) | 1.14
Cc1cccn2c(=O)c3cc(C(=O)NC(C)c4ccccc4)c(=N)n(CCCn4ccnc4)c3nc12 (stereo not shown) | -68.1
O=C(c1cccc(N2C(=O)C3CC=CCC3C2=O)c1)N1CCN(c2ccccc2)CC1 (stereo not shown) | -7.16
COc1cc(NC(=O)C2=C(N3CCOCC3)/C(=C\c3ccc(Br)cc3)CC2)cc(OC)c1OC | -8.86
Cc1cccc2cc(C(c3nnnn3CC3CCCO3)N3CCOCC3)c(=O)[nH]c12 (stereo not shown) | -3.75
O=C(/C=C/c1cccs1)N1CCc2ccccc21 | 7.16
COc1cccc2cc(C(=O)N3CCN(c4ncccn4)CC3)c(=O)oc12 | -1.53
Cc1ccc(CNC(=O)CCC2CCCN(C(=O)c3ccc4c(c3)OCO4)C2)o1 (stereo not shown) | -20.5
O=C(Cc1cccc(NC(=O)C2CCN(C(=O)c3ccccc3)CC2)c1)Nc1cccc(C(=O)N2CCCC2)c1 | 8.17
COc1ccccc1CN1CC(C(=O)N2CCN(c3ccc(F)cc3)CC2)CC1=O (stereo not shown) | -43

Structure (SMILES) | hERG current change (%, negative = inhibition) at 10uM [%]
CC(Oc1ccc(Cl)cc1)C(=O)Nc1ncccn1 (stereo not shown) | -5.54
COC(=O)c1cccc(NS(C)(=O)=O)c1 | 12.9
O=C(NN1C(=O)C2C(C1=O)C1C=CC2C12CC2)c1ccc(Cl)cc1 (stereo not shown) | 1.78
COc1cc(C(O)CO)ccc1OS(=O)(=O)[O-].[K+] (stereo not shown) | 9.76
CCn1cc(/C=C/C(=O)Nc2c(C)nn(Cc3ccccc3C)c2C)cn1 | 4.46
CC(C)c1ccc(N(C(=O)c2csnn2)C(C(=O)NC2CCCC2)c2cccnc2)cc1 (stereo not shown) | -30.7
O=C(O)c1ccc(Nc2ccc(F)c(F)c2)c([N+](=O)[O-])c1 | 8.59
COc1ccc(N2CCN(CCCNC(=O)CCCn3c(=O)[nH]c4ccsc4c3=O)CC2)cc1 | -9.7
O=C(NCCc1cccc(C(F)(F)F)c1)C1CCC(=O)N(CCc2cccc(F)c2)C1 (stereo not shown) | -56.8
CC(C)CNS(=O)(=O)c1ccc(CCC(=O)N2CCN(c3ccccc3)CC2)cc1 | -91.3
CC1(C)Oc2ccc3ccc(=O)oc3c2/C(=C/N)C1=O | 5.25
Cc1ccc(S(=O)(=O)N2[C@@H](c3ccccc3F)C(C(=O)O)=CC[C@H]2c2ccc3c(c2)OCO3)cc1 | 17
C=C(C)Cn1c(-c2ccc(OC)cc2)nc2ccccc21 | -23.4
COc1cccc(N(CC(=O)NCc2ccccc2)C(=O)CCC(=O)Nc2nccs2)c1 | 10.8
O=C(C(=O)N1CCN(c2ccc(F)cc2)CC1)N1CCCCC1 | -6.39
COc1ccc(Cl)cc1NC(=O)CN1CCN(C(=O)N2CCOCC2)CC1 | -38.8
COc1ccc2nc(C)cc(SCC(NC(C)=O)C(=O)OC(C)C)c2c1 (stereo not shown) | -16.4
COc1nc(NC(=O)c2ccc(F)cc2)nc(OC)c1-c1ccccc1 | 9.34
CCOC(=O)C1(CCCCCCOc2ccc(Cl)cc2)CO1 (stereo not shown) | 4.13
